{"source": "paper PMC12136788", "binders": {"B1": {"name": "chr16:94664741:94664742:+_ENSMUSG00000040785_ENSMUST00000117648|mus_hu|mus_mus_mus_hu_False|78_98 (ssRNA)", "RNA": "GGGAGUUCUACAGUCCGACGAUCUGGUACUGAUCUUUGCAUUGGAUAUUCAGGAGAAAUGUUGGCCAAGGGUGUAUAUAUGCUGGUGUACUGGGGCAAACCUGGUAACACGUUUAUGUAUGCUGGCGGUGUCUGGGUGAUAUCCAACAGAGGAUUGAGCAUCA"}, "B2": {"name": "chr7:135612270:135612271:-_ENSG00000105887_ENST00000393085|hu_mus|hu_hu_hu_mus_False|8_108 (ssRNA)", "RNA": "GGGAGUUCUACAGUCCGACGAUCGUUUCUGAGAUGUAUGUUAAAUAGUACUUCAGUGGAAAACAAAACUUAACCUUUUAUUAAUGCGUGUUGUACCAAAAGCAGACAUUUUAGCUUCAUUUAUUCACUCAAAAUAUCAUUAAGCAACAGAGGAUUGAGCAUCA"}, "B3": {"name": "chr11:100882373:100882374:+_ENSMUSG00000019302_ENSMUST00000044721|mus_mus|motif|central (ssRNA)", "RNA": "GGGAGUUCUACAGUCCGACGAUCUUCCUGGUUAGUGUUGAUUUCCUUCAGUUCAUUUUCAAUCUUCUCGAAAUUGGCCUCGGAGUCGAUCAUGUCCCGAGGGAAGGGCACCUCUGGGUUUUCACCGGUGUCCAUAAUUGGGAUCAACAGAGGAUUGAGCAUCA"}, "B4": {"name": "chr7:149068622:149068623:-_ENSMUSG00000025139_ENSMUST00000001950|mus_hu|mus_mus_mus_hu_False|1_8 (ssRNA)", "RNA": "GGGAGUUCUACAGUCCGACGAUCGUGAGGCCUCUGAGUGUGGCUUGUGGUCUGUCCUGGGUUAGAGUUGUUAAUAUCACGGAACAUACCAUCUAGAACGUUCCAGUCCCGCCUGACACCUUCAUUCGCAAGAGGGCAUCUGCUCAACAGAGGAUUGAGCAUCA"}, "B5": {"name": "22999476_23000114_3599_CDS_ENSG00000068793_ENST00000560848|human|control|control (ssRNA)", "RNA": "GGGAGUUCUACAGUCCGACGAUCCCCAUCACCAAAGCACUGCUCGACUGUGAACUCGUGUGUCCCCACGGGAAUGCAGUAGACAAACUGCAUGGCACUCCACAGUCUGUGAAACUCCACACACUCGUCCACAUGCAUGACCCCCAACAGAGGAUUGAGCAUCA"}, "B6": {"name": "chr14:78183846:78183847:+_ENSG00000119705_ENST00000557342|hu_hu|hu_hu_hu_mus_False|8_28 (ssRNA)", "RNA": "GGGAGUUCUACAGUCCGACGAUCUCUCAGAAAUCUUUCUUCAUCAGAUGUUUGAGCUCCGUGCAAAGCCUUUGCUCUUUGAGCUUGAACGUGGAUCUAUGGGAGGGCUAUAAUAUGCAGAAAAGGUUGUAGUGCAUUUAAAGACAACAGAGGAUUGAGCAUCA"}, "B7": {"name": "104379465_104380804_1343_3pUTR_ENSG00000139372_ENST00000392872|human|control|control (ssRNA)", "RNA": "GGGAGUUCUACAGUCCGACGAUCUCUGUAAAUGACUGGGUCAUCCACUGCCCAUUAGGAAUGCCACUGAAAGCUGAUUCUCCUCUUAACUCCACGCUCUCAAUUAGCCCAUUUGAAGAGAAGCCACAAGGUUCACUGCUGCAUCAACAGAGGAUUGAGCAUCA"}, "B8": {"name": "chrX:71549400:71549401:+_ENSMUSG00000019087_ENSMUST00000019231|mus_hu|mus_mus_mus_hu_False|38_58 (ssRNA)", "RNA": "GGGAGUUCUACAGUCCGACGAUCGCAGUAGGAAGAGGGAAGCUCUUCAGUCCAGUGCGCUGCAGGGUGGGAAAGCACAACCUAGACCACCGUCCCACCUCAAUUCCCCCCACUGGCACAGGGUCACACAAUCUGGGUCAAAGACAACAGAGGAUUGAGCAUCA"}, "B9": {"name": "chr7:6441565:6441566:+_ENSG00000136238_ENST00000348035|hu_mus|motif|central (ssRNA)", "RNA": "GGGAGUUCUACAGUCCGACGAUCGGUGAUGGGAGUCAGCUUCUUCUCCUUCAGCUUCUCAAUGGUGUCCUUAUCAUCCCGGAGAUCAAGCUUCGUCCCCACGAGGAUGAUAGGAGUAUUGGGACAGUGGUGUCGCACUUCAGGCAACAGAGGAUUGAGCAUCA"}, "B10": {"name": "chr22:22143041:22143042:-_ENSG00000100030_ENST00000215832|hu_mus|FALSE|FALSE (ssRNA)", "RNA": "GGGAGUUCUACAGUCCGACGAUCGAUGUGAUUCAGCUGGUCAAGGUAAUGCUUUCCUGGGAAGAUAGGCCUGUUGGAUAGCAUCUCUGCCAGGAUGCAGCCCACAGACCAAAUAUCAAUGGACUUGGUAUAACCCUUGGAAUUCAACAGAGGAUUGAGCAUCA"}, "B11": {"name": "chr16:38184571:38184572:+_ENSMUSG00000022812_ENSMUST00000023507|mus_mus|FALSE|FALSE (ssRNA)", "RNA": "GGGAGUUCUACAGUCCGACGAUCCAGCUGAUACAUAUACAACUUGACAUAGAUCACAGGGAGUGUCUGCUUGGCUCGACUAUAGUGUCUGGCGACUCUGUACACUGUCUCCGGAACAUAGUCCAGCACCAGGUUAAGGUAGACCAACAGAGGAUUGAGCAUCA"}, "B12": {"name": "15274082_15275403_1402_CDS_ENSG00000131375_ENST00000253693|human|control|control (ssRNA)", "RNA": "GGGAGUUCUACAGUCCGACGAUCCCAGCCAGUCAGUGCAUGAAGAUCAAUAUUGGAGUUGGAUCCUGGAAAAUCAUAUCCUCCCAUGACUUUCAUGUAUGCUUUUUCUAUGAGAGAAACCCAUAAUUCACUUUUGUUGUUGGACAACAGAGGAUUGAGCAUCA"}, "B13": {"name": "chr7:30640729:30640730:+_ENSG00000106105_ENST00000389266|hu_hu|FALSE|FALSE (ssRNA)", "RNA": "GGGAGUUCUACAGUCCGACGAUCCUGAAUAAUAUUGUUCUUCAAAGCACAGCCAACUGGCCCAAAGUCAUACAGACCACUAACACCUCCAUAAAUAGCAAAAGCUUGAUCAUAGAAAAACCUCCUCUUCAGGGUAUCUUCCAUCAACAGAGGAUUGAGCAUCA"}, "B14": {"name": "chr16:45382771:45382772:-_ENSMUSG00000022661_ENSMUST00000163230|mus_mus|mus_mus_mus_hu_True|78_88 (ssRNA)", "RNA": "GGGAGUUCUACAGUCCGACGAUCCUGGGUCAUGUUAUAAGACAAAUGGAUAGGGAGAGCAUGCUUUUCAAAAAAUGUGAGCUAUUGUCUAAGACUAACAAUAUUUAUCUAGCUAUAAAAAUAAGUUAAAUGAAUAAGUUAAGACAACAGAGGAUUGAGCAUCA"}}, "note": "Some of the results follow.", "data": [{"target": "T1, UNK ZnF1-3 (human, UniProt Q9C0B0 31-174)", "T1 sequence": "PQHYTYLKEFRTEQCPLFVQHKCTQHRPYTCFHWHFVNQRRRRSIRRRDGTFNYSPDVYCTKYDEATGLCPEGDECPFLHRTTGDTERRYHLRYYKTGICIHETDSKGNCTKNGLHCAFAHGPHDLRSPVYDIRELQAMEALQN", "assay": "nsRBNS (natural sequence RNA bind-n-seq); RBNS binding buffer (assumed for nsRBNS): 25 mM Tris pH 7.5, 150 mM KCl, 3 mM MgCl2, 0.01% Triton X-100, 500 ug/ml BSA, 20 U/ml SUPERase-In, 4 C; UNK is unkempt and MSI1 is Musashi-1; names of the RNAs are library labels; protein concentration not given here; high values mean tight binding", "units": {"binding signal": "enrichment R"}, "values": [{"binder": "B1", "binding signal": 0.899}, {"binder": "B2", "binding signal": 0.607}, {"binder": "B3", "binding signal": 0.468}, {"binder": "B4", "binding signal": 0.665}, {"binder": "B5", "binding signal": 0.705}, {"binder": "B6", "binding signal": 1.86}, {"binder": "B7", "binding signal": 0.988}, {"binder": "B8", "binding signal": 1.39}, {"binder": "B9", "binding signal": 0.652}, {"binder": "B10", "binding signal": 0.792}, {"binder": "B11", "binding signal": 0.898}, {"binder": "B12", "binding signal": 0.756}, {"binder": "B13", "binding signal": 1}, {"binder": "B14", "binding signal": 2.57}]}]}
